For series [1], the system named is 3LL. Description: cell viability relative to siNT1 control; higher = less toxic. Particulars: concentration: 10 nM; 96 h; Mus musculus.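 Further: Luminescence-based viability of cells reverse transfected in 384-well plates with lipid-complexed siRNAs built on a non-toxic 19mer backbone whose passenger strand carries 2′-O-methyl groups at positions 1 and 2, triplicates.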
The test system of series [2] is HeyA8. Description: cell viability relative to lipid-only control; HeyA8 human ovarian and H460 human lung cancer; M565 mouse liver and 3LL mouse lung cancer; siNT1 is a non-toxic control siRNA; higher = less toxic. The settings on record: concentration: 10 nM; 96 h; Homo sapiens. Here is the method:
(§1)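 Arrayed screen of 4096 siRNA duplexes, each carrying one of all possible 6mer seeds at guide-strand positions 2-7 in a fixed neutral 19mer scaffold (constant flanks: U at position 1, then ACAUGUAAACCA, plus a 3' AA overhang). The passenger strand is 2'-O-methylated at positions 1-2 so only the guide strand loads into RISC. Duplexes were reverse-transfected at 10 nM with RNAiMAX in triplicate in 384-well plates; viability was read by CellTiter-Glo ATP content 96 h after transfection. Values are % viability normalised to lipid-only wells (HeyA8, H460, M565) or to siNT1 (3LL).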

Series [3] relates to H460. The description is as above. The settings on record: concentration: 10 nM; 96 h; Homo sapiens. Here is the method: as §1
Series [4] concerns M565. Described as above. Particulars: concentration: 10 nM; 96 h; Mus musculus. Here is the method: as §1

These results are taken from the supplement of paper PMC6206098.

± gives the uncertainty stated by the source. The sequences are guide strands of siRNAs; only the seed at positions 2 to 7 varies.
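Wherever cell viability relative to lipid-only control is given: reverse lipid transfection in 384-well plates, in triplicate, of duplexes on a non-toxic 19mer backbone with passenger strand 2′-O-methylated at positions 1 and 2, luminescence viability read-out.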

On to UUACAGUACAUGUAAACCAAA, for which the cell viability (usually a read-out of living cells in per cent, often relative to untreated cells) in series [1] was found to be 78.3 ± 4.4%; in series [2] it was 72.7 ± 2%; in series [3], 58.5 ± 5.2%; in series [4] it was 44.7 ± 9.3%.
In the case of UGGUAAUACAUGUAAACCAAA, the cell viability in series [1] is 91.4 ± 9.5%; in series [2] it was 42.5 ± 0.58%; in series [3] it was 44.7 ± 3%; in series [4], 40.7 ± 5.3%.
UUUCUCCACAUGUAAACCAAA: the cell viability in series [1] stood at 30.2 ± 3.2%; in series [2], 30.3 ± 3.9%; in series [3], 28.6 ± 1.5%; in series [4] it was 66.9 ± 7.6%.
On the same counts, the results for UUACUCUACAUGUAAACCAAA are 32 ± 1.9%, 40.8 ± 3.9%, 39.8 ± 1.5% and 29.8 ± 3.1%.
Regarding UGGCCAGACAUGUAAACCAAA, the cell viability in series [1] stood at 33.2 ± 11%; in series [2], 39.3 ± 5.2%; in series [3], 43.8 ± 3.7%; in series [4], 46.7 ± 4.5%.
Taken in the same sequence, the figures for UAGAGUCACAUGUAAACCAAA were 41.1 ± 2.3%, 30.7 ± 1.6%, 36.5 ± 8.6% and 55.2 ± 10%.
For the sequence UUGUCGGACAUGUAAACCAAA, the cell viability turned out to be 52.1 ± 6% in series [1], 93.8 ± 6.1% in series [2], 69.2 ± 13% in series [3] and 81.9 ± 14% in series [4].
Take UCUUUGAACAUGUAAACCAAA: the cell viability in series [1] is 91.1 ± 15%; in series [2], 80.8 ± 8.1%; in series [3], 79.5 ± 7.5%; in series [4], 76.2 ± 14%.
With UAUGACGACAUGUAAACCAAA, the cell viability in series [1] was found to be 118 ± 15%; in series [2] it was 108 ± 12%; in series [3], 67.9 ± 4.6%; in series [4], 88.4 ± 10%.
On the same counts, the results for UGCUGUCACAUGUAAACCAAA are 18.6 ± 4.2%, 17.1 ± 2.3%, 62.3 ± 4.4% and 23.2 ± 7.3%.
Taken in the same sequence, the figures for UGGGGUCACAUGUAAACCAAA were 6.92 ± 0.71%, 1.71 ± 0.4%, 28.4 ± 3.4% and 11.6 ± 1.4%.
Turning to UAAACCCACAUGUAAACCAAA, the cell viability in series [1] came to 24.6 ± 3.9%; in series [2], 27.5 ± 7.5%; in series [3], 72.9 ± 17%; in series [4], 19.6 ± 5.2%.
Taken in the same sequence, the figures for UGGCGGAACAUGUAAACCAAA were 37.2 ± 4.1%, 4.88 ± 0.35%, 32.4 ± 5.7% and 30.1 ± 3.9%.
Taken in the same sequence, the figures for UCUAACCACAUGUAAACCAAA were 98.2 ± 12%, 63.9 ± 3.2%, 36.7 ± 1.1% and 59.6 ± 7.6%.
Taken in the same sequence, the figures for UAGACAUACAUGUAAACCAAA were 74 ± 3.5%, 93.8 ± 13%, 83 ± 9% and 35.7 ± 4.8%.
For UUUACUAACAUGUAAACCAAA, the cell viability in series [1] is 98.2 ± 2.8%; in series [2], 96.2 ± 4.6%; in series [3], 95.4 ± 7.5%; in series [4], 79.3 ± 8.5%.
Regarding UUAAUGCACAUGUAAACCAAA, the cell viability in series [1] came out at 19.5 ± 3%; in series [2], 57.3 ± 1.6%; in series [3], 55.1 ± 7.7%; in series [4], 83.4 ± 17%.
In the case of UGCAUAGACAUGUAAACCAAA, the cell viability worked out at 84.8 ± 7.5% in series [1], 77.1 ± 3.9% in series [2], 60.3 ± 7.8% in series [3] and 63.3 ± 2% in series [4].
Turning to UAGGACGACAUGUAAACCAAA, the cell viability in series [1] worked out at 76.7 ± 7.3%; in series [2] it was 76.8 ± 14%; in series [3], 82.2 ± 4.8%; in series [4], 61.8 ± 10%.
Turning to UGAGUGGACAUGUAAACCAAA, the cell viability in series [1] amounted to 26.4 ± 5%; in series [2] it was 18.8 ± 3.5%; in series [3] it was 65.2 ± 9.4%; in series [4], 11.1 ± 4.7%.
As to UACAUAGACAUGUAAACCAAA, the cell viability in series [1] was 88.9 ± 13%; in series [2], 82.1 ± 7.4%; in series [3], 76.3 ± 21%; in series [4], 66.1 ± 10%.
In the case of UGAUUAUACAUGUAAACCAAA, the cell viability in series [1] was 42 ± 14%; in series [2], 52.3 ± 6.5%; in series [3], 69.3 ± 4.5%; in series [4], 14.1 ± 2.3%.
UUUAUCCACAUGUAAACCAAA: the cell viability is 42.9 ± 5.4% in series [1], 76.1 ± 9.2% in series [2], 74 ± 0.76% in series [3] and 29.5 ± 2.3% in series [4].
On the same counts, the results for UGCGGUCACAUGUAAACCAAA are 27.6 ± 5.9%, 12.4 ± 1.5%, 15 ± 2.5% and 11.2 ± 3.1%.
Taken in the same sequence, the figures for UUUCAGGACAUGUAAACCAAA were 94.3 ± 3.8%, 91.1 ± 6.4%, 34.9 ± 2.9% and 50.8 ± 8.4%.
Consider UAGACACACAUGUAAACCAAA, for which the cell viability in series [1] amounted to 75.5 ± 8.2%; in series [2], 67.6 ± 1.2%; in series [3] it was 60.3 ± 9.1%; in series [4] it was 27.2 ± 5.1%.
For the sequence UUACCGUACAUGUAAACCAAA, the cell viability in series [1] came to 73.4 ± 10%; in series [2] it was 75.8 ± 2.7%; in series [3], 54.9 ± 7.5%; in series [4] it was 34.8 ± 5.3%.
On the same counts, the results for UGGCUCCACAUGUAAACCAAA are 9.08 ± 2.1%, 8.54 ± 0.89%, 21.1 ± 1.5% and 31.8 ± 2.2%.
